From paper PMC4336329 (PLoS ONE, 2015)
The whole screen tested about 310,000 compounds, of which about 2,200 (0.71%) showed an effect of 50% or more. Effects have a minus sign here. The list shows a part of the results.

molecular target: human ether-à-go-go-related gene (hERG) potassium channel (human, UniProt Q12809); assay: primary screen, population patch clamp on CHO cells stably expressing hERG
Sequence (Q12809 whole entry, looked up): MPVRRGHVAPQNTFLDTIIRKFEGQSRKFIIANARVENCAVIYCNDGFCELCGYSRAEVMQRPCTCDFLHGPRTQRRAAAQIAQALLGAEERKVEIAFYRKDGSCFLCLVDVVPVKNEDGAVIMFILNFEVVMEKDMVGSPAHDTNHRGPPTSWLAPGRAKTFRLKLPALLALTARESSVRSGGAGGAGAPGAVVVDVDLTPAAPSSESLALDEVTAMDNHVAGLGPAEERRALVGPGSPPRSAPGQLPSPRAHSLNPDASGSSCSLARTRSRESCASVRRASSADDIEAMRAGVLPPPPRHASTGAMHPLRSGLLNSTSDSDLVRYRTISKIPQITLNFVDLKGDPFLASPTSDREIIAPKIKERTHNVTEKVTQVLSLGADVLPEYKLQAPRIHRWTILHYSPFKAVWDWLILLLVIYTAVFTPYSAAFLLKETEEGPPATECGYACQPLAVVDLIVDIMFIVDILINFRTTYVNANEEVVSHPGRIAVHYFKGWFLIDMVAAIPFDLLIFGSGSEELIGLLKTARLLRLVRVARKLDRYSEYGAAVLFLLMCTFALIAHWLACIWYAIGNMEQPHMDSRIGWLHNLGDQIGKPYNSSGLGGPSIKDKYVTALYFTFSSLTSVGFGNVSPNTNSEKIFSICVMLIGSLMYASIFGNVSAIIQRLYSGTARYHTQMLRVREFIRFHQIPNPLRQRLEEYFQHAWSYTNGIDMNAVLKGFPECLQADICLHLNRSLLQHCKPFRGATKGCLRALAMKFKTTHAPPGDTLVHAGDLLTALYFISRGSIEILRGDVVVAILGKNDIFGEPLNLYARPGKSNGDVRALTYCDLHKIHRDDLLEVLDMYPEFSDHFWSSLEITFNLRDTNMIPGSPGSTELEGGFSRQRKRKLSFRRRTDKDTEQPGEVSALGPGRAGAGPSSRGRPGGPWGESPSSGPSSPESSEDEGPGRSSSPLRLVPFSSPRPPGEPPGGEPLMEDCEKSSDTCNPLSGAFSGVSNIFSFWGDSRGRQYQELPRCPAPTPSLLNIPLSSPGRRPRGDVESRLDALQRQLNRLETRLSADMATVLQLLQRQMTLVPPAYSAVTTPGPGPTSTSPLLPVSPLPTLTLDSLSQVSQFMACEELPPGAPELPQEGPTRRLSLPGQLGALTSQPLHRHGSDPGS

Compound	hERG current change (%, negative = inhibition) at 1uM [%]
CC(C)(C)NC(=O)C(Cc1ccccc1)NS(=O)(=O)c1cccc2nsnc12 (stereo not drawn)	9.43
Cc1cc(N2CCN(C)CC2)nc2ccc(NC(=S)NCCN3CCc4ccccc4C3)cc12	-4.66
CC1(C)Cc2c(sc3nc(SCC(=O)NCc4ccco4)n(-c4ccccc4)c(=O)c23)CS1	13.1
COc1ccc(S(=O)(=O)CC(=O)Nc2nnc(C(F)(F)F)s2)cc1	1.56
CNc1nc(SCc2ccccc2Cl)nc2c1CCCC2	7.73
O=C(COC(=O)c1cccnc1)Nc1cccc(Cl)c1	12.9
CCOC(=O)c1ccc(-c2ccc(/C=N/NC(=O)CN(c3ccccc3Br)S(C)(=O)=O)o2)cc1	9.67
Cc1cc(OC(=O)c2ccccc2Br)c([N+](=O)[O-])c(=O)[nH]1	8.61
CNS(=O)(=O)c1cnccc1N1CCN(C)CC1	9.03
Cc1cc(NC(=O)CSc2nc(Cc3ccccc3)c(C)[nH]2)no1	10.8
Cc1ccc(C(=O)Cc2nc3ccccc3[nH]2)cc1	11.8
CSc1ccc(C2C(C#N)=C(N)Oc3c2ccc(=O)c2c(C)oc(C)c32)cc1 (stereo not drawn)	18.2
Cc1ccc(NC(=O)C2Cc3ccccc3O/C2=N\O)cc1C (stereo not drawn)	14
Cc1ccsc1C(=O)N1CCN(c2ncc(C(F)(F)F)cc2Cl)CC1	13.6
Cc1ccc(OCCn2c(=O)oc3ccc(C)cc32)cc1	13
Cc1cc(NC(=O)c2ccoc2C)ccc1Br	6.09
O=C(CCC1CCCN(C(=O)C2=CCCC2)C1)N1CCN(c2ccccn2)CC1 (stereo not drawn)	10.9
O=C(COC(=O)Cc1ccc(F)cc1)Nc1ccc(Cl)cn1	11.1
C[C@H](NC(=O)c1nc[nH]c1C(=O)NC1CCN(C(=O)OC(C)(C)C)CC1)C(=O)OC(C)(C)C	-0.429
C[C@H](OC(=O)N1CCN(C(c2ccccc2)c2ccccc2)CC1)[C@@H]1O[C@@]2(C)CCC[C@H]1O2	14.3
COc1ccc(N2C(=O)c3ccccc3NC2c2ccc(OC)c(COc3ccccn3)c2)cc1 (stereo not drawn)	7.47
Cc1cc(O)c2c(C)c(CC(=O)N3CCN(C(=O)C4COc5ccccc5O4)CC3)c(=O)oc2c1 (stereo not drawn)	12.1
Cc1nn(C)cc1CNC(=O)c1cc2n(n1)C(C(F)(F)F)CC(c1cccs1)N2 (stereo not drawn)	2.41

Compound	hERG current change (%, negative = inhibition) at 1uM [%]
CN(C)c1cccc(C(=O)OC(C(=O)Nc2ccc([N+](=O)[O-])cc2Br)c2ccccc2)c1 (stereo not drawn)	5
CC(NC(=O)/C=C/c1ccco1)c1nc2ccccc2n1Cc1ccccc1F (stereo not drawn)	12.7
Cc1cc(C)cc(N(CC(=O)Nc2c(C)n(C)n(-c3ccccc3)c2=O)S(C)(=O)=O)c1	13.7
CC1CN(S(=O)(=O)c2ccc(C(=O)Nc3ccc(S(=O)(=O)Nc4ncccn4)cc3)cc2)CC(C)O1 (stereo not drawn)	12.9
COC(=O)c1ccc(/C=N/OCC(=O)NC2CCCCCCC2)cc1	7.42
CCOC(=O)c1c(C)c(C#N)c2c3ccccc3ccn12	11.2
CN(Cc1ccc(Cl)cc1)C(=O)c1cc(S(=O)(=O)N2CCOCC2)ccc1N1CCCC1	-28.7
CCOC(=O)[C@@H]1[C@H]2COc3ccccc3[C@@H]2N2C(=O)N(c3ccccc3)C(=O)[C@@]12C	13
CC(=O)Oc1ccccc1C(=O)OCCN=C1NS(=O)(=O)c2ccccc21	18.1
COc1ccccc1NC(=O)CN(C)S(=O)(=O)c1ccc(F)cc1	7.7
O=C(Cc1ccc([N+](=O)[O-])cc1)NC1CCCCCC1	15.2
CN1C2CCC1CC(NC(=O)c1cccc(C(F)(F)F)c1)C2 (stereo not drawn)	10.5
O=C(c1ccc(Cl)cc1Cl)N1CCC(c2nc3c(nnn3Cc3ccco3)c(=O)[nH]2)CC1	-11.2
O=S(=O)(c1ccccc1F)N1CCN(C(=S)NCc2ccccc2)CC1	14.3
Cc1cc(C)nc(N/N=C/c2cc3c(cc2[N+](=O)[O-])OCO3)n1	11.2
CC(C)N(C(=O)CSc1nc2ccccc2c(=O)[nH]1)C(C)C	9.74
COc1ccc(/C(N)=N/OC(=O)c2ccc3c(c2)OCO3)cc1	14.1
CCc1cccc(NC(=O)C2CCCC2)c1	20.7
O=C(Cn1cnc2c(nnn2-c2ccccc2)c1=O)N1CCC(Cc2ccccc2)CC1	-0.531
NC(=O)C1CCN(CC(O)CSc2ccccc2)CC1 (stereo not drawn)	4.32
COC(=O)C1=C(c2ccc(C(C)=O)cc2)C[C@@H]2CC[C@H]1N2C(=O)NCc1ccc2c(c1)OCO2	4.09
CCCn1c(N)c(N2CCCCC2)c(=O)n(CC(=O)Nc2ccccc2C)c1=O	16
